Here are results for 87 compounds from PMC4336329 (PLoS ONE, 2015).

The whole screen tested about 310,000 compounds, of which about 14,000 (4.5%) showed an effect of 50% or more. The effect is printed as a negative number. This is one part of the list. Where a SMILES comes first, the peptide text is derived from it. [ ]: non-standard residue; d: D form. The star is where a group is joined. Hyp = O=C(O)[CH]1C[CH](O)CN1; Cbz = O=C(OCc1ccccc1)*; OBn = c1ccc(CO*)cc1
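Note: peak tail current of the secondary pulse compared with the same well before compound.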

Sequence of human ether-à-go-go-related gene (hERG) potassium channel (Q12809 whole entry, looked up): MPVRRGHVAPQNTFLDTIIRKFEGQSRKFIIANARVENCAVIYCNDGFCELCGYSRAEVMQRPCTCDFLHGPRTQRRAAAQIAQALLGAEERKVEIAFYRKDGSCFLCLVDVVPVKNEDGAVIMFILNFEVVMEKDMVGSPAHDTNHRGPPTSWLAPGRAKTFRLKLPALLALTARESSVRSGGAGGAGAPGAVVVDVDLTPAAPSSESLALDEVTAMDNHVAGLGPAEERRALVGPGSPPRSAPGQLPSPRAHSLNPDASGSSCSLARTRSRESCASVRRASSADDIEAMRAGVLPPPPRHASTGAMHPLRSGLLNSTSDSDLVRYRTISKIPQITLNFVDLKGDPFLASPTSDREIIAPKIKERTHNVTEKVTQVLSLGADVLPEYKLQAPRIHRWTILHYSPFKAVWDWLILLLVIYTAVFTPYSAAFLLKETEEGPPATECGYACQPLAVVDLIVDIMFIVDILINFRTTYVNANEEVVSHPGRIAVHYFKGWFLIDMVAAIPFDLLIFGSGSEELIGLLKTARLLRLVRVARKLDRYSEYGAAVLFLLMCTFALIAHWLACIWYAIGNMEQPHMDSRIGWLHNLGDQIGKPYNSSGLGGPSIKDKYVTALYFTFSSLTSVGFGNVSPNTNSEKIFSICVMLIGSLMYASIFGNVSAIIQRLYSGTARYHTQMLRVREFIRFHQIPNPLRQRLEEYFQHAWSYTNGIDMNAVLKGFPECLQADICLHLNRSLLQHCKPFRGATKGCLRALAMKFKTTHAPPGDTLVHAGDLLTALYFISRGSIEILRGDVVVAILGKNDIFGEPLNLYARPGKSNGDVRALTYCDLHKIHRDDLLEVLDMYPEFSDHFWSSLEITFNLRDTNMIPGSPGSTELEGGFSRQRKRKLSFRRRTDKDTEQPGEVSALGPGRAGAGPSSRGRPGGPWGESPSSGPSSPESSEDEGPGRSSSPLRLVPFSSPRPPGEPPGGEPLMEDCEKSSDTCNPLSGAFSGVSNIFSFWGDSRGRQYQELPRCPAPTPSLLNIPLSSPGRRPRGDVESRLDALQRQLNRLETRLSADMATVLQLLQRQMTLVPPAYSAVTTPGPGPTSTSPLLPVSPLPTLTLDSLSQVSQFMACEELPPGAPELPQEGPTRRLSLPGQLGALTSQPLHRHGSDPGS

This experiment addresses human ether-à-go-go-related gene (hERG) potassium channel (human, UniProt Q12809). Kind of experiment: primary screen, population patch clamp on CHO cells stably expressing hERG.
On to `c1ccc(OCc2nc(-c3cccs3)no2)cc1`, for which the “hERG current change (%, negative = inhibition) at 10uM” value is 11.5%.
As for `CCN1CCN(C(=O)C2CCN(Cc3cc(Cl)ccc3O)CC2)CC1.O=C(O)C(=O)O`, the “hERG current change (%, negative = inhibition) at 10uM” value is listed as -6.22%.
`COCCn1c(SCC(=O)NCc2cccs2)nnc1-c1ccc(OC)cc1`: the “hERG current change (%, negative = inhibition) at 10uM” value was 15.3%.
Then `COc1ccc(C(=O)OC2C[C@H]3CC[C@@H](C2)N3O)cc1OC` (stereo partly drawn), with 15.5%.
Take `COC(=O)C1(C)NCCc2c1[nH]c1ccccc21` (stereo not drawn): the “hERG current change (%, negative = inhibition) at 10uM” value was 13%.
As to `COc1ccc(S(=O)(=O)Nc2c(C(=O)O)[nH]c3ccc(OC)cc23)cc1`, the “hERG current change (%, negative = inhibition) at 10uM” value is recorded as -13.6%.
Turning to `O=C(CSc1nnc(-c2ccccc2)o1)N1CCCCC1`, the “hERG current change (%, negative = inhibition) at 10uM” value amounted to 10.4%.
On to `NNC(=O)c1cc2c(N3CCC(Cc4ccccc4)CC3)ncnc2s1`, for which the “hERG current change (%, negative = inhibition) at 10uM” value was -10.5%.
In the case of `COC(=O)c1ccc[n+](CCc2c[nH]c3ccccc23)c1.[Br-]` it was 18.2%; in that of `CC(=O)Oc1ccc(C(=O)Nc2cccnc2)cc1`, 13.1%; in that of `CCSc1nnc(NC(=O)c2ccc(C)o2)s1`, 2.45%.
Regarding `CCOC(=O)Cc1csc(NC(=O)CCSc2ccccc2)n1`, the “hERG current change (%, negative = inhibition) at 10uM” value is given as 12.4%.
Regarding `CCCn1c2ccccc2c2nnc(SCc3[nH]c(=O)[nH]c3C(=O)CCCCC(=O)OCC)nc21`, the “hERG current change (%, negative = inhibition) at 10uM” value came to 15%.
In the case of `CCO[C@@H]1OC(C(=O)N2CCN(Cc3ccc4c(c3)OCO4)CC2)=C[C@H](c2cn(C(C)=O)c3ccccc23)[C@H]1CCCO` it was -39.7%; in that of `COc1ccccc1N1CCN(C(C)C(=O)Nc2ccc(S(=O)(=O)N3CCOCC3)cc2)CC1` (stereo not drawn), -4.19%.
In the case of `Cc1ccccc1OC/C(O)=C(\C#N)c1nc2ccccc2[nH]1` it was 3.54%.
For `Cn1c(COc2ccc(Cl)cc2)nnc1SCC(=O)NC1CC1`, the “hERG current change (%, negative = inhibition) at 10uM” value is on record as -10.6%.
`COc1ccc(-n2c(SCC(=O)Nc3cccc4ccccc34)nc(O)cc2=O)cc1`: the “hERG current change (%, negative = inhibition) at 10uM” value is 17.2%.
Turning to `O=C(c1ccc(-n2c(SCc3cc(F)ccc3F)nc3ccccc3c2=O)cc1)N1CCOCC1`, the “hERG current change (%, negative = inhibition) at 10uM” value worked out at 8.7%.
`CCOCCCNC(=O)C(Cc1ccccc1)NS(=O)(=O)c1ccc2c(c1)c(=O)n(C)c(=O)n2C` (stereo not drawn): the “hERG current change (%, negative = inhibition) at 10uM” value was -4.96%.
In the case of `Cc1ccc(-c2nn[nH]n2)cc1Cl` it was 12.5%; in that of `O=C1C2C3C=CC(C2C(=O)N1c1ccccc1O)C1C2C(=O)N(c4ccccc4O)C(=O)C2C31` (stereo not drawn), 13.8%.
Consider `Cc1nnsc1NC(=O)OCc1ccc(Cl)cc1Cl`, for which the “hERG current change (%, negative = inhibition) at 10uM” value is -9.55%.
`CCOc1ccccc1OCCOCCOc1c(Cl)cccc1Cl`: the “hERG current change (%, negative = inhibition) at 10uM” value is -7.14%.
In the case of `CC(C)c1nc(SCC(=O)N2CCOCC2)c2c(=O)n(C)c(=O)n(C)c2n1` it was 0.676%; in that of `CC1CCc2sc3ncn4nc(C(=O)NCc5ccco5)nc4c3c2C1` (stereo not drawn), -9.9%; in that of `CC(C)(C)C1CCc2onc(C(=O)Nc3ccc4c(c3)OCO4)c2C1` (stereo not drawn), 3.44%.
As to `CC(=O)C1=C(C)NC(SCC(=O)c2ccc(Cl)c(Cl)c2)=C(C#N)C1c1ccco1` (stereo not drawn), the “hERG current change (%, negative = inhibition) at 10uM” value was found to be 5.27%.
Regarding `O=C(CN1C(=O)CCS(=O)(=O)c2ccccc21)NCc1ccc(F)cc1`, the “hERG current change (%, negative = inhibition) at 10uM” value was -5.6%.
Then `Nc1c(C(=O)Nc2ccccc2F)sc2nc(-c3cccnc3)ccc12`, with 20.9%; and `Cc1cc(CCCCCCCCc2cc(C)cc(=O)o2)oc(=O)c1`, with -2.63%.
In the case of `Clc1ccccc1-c1ccc2ncnc(NCc3ccc4c(c3)OCO4)c2c1`, the “hERG current change (%, negative = inhibition) at 10uM” value amounted to 7.32%.
`COc1ccc(CN(C(=O)Cn2nnc3ccccc32)C(C(=O)NC(C)(C)C)c2ccco2)cc1` (stereo not drawn): the “hERG current change (%, negative = inhibition) at 10uM” value is -1.16%.
`CC(NC(=O)CNC(=O)OCc1ccccc1)C(=O)N1CC(O)CC1C(=O)OCc1ccccc1` (stereo not drawn) (Cbz-Gly-Ala-[Hyp]-OBn; configuration not given here): the “hERG current change (%, negative = inhibition) at 10uM” value is reported as -0.0848%.
On to `Cc1cc(C)n2c3c(c(C#N)c2n1)CC(C)(C)OC3`, for which the “hERG current change (%, negative = inhibition) at 10uM” value turned out to be 2.81%.
Take `Cc1ccccc1C(=O)c1c[nH]c(C(N)=O)c1`: the “hERG current change (%, negative = inhibition) at 10uM” value is 13.4%.
For the compound `COc1cc(C(=O)OCC(=O)Nc2ccc(C)cc2)cc(OC)c1OC`, the “hERG current change (%, negative = inhibition) at 10uM” value turned out to be 28.7%.
For the compound `O=C(c1cc(Cl)cc(Cl)c1)N1CCC(=O)N(C(COCc2ccccc2)Cc2ccccc2)CC1` (stereo not drawn), the “hERG current change (%, negative = inhibition) at 10uM” value was -10%.
In the case of `CCOc1ccc(OCC)c(NC(=O)CCn2cccc2)c1` it was -0.568%; in that of `COc1ccc(/C=C/C(=O)Nc2ccccc2C(=O)O)cc1`, 7.91%.
In the case of `COc1ccc(NC(=O)CN(C)CCOc2ccc(Cl)cc2)cc1OC.O=C(O)C(=O)O`, the “hERG current change (%, negative = inhibition) at 10uM” value is given as -17.4%.
For the compound `CC(C)(C)c1cc([N+](=O)[O-])cc(C(C)(C)C)c1O`, the “hERG current change (%, negative = inhibition) at 10uM” value is on record as 4.16%.
Turning to `N#Cc1c2c(c(Nc3ccccc3)n3c1nc1ccccc13)CCC2`, the “hERG current change (%, negative = inhibition) at 10uM” value came to 19.5%.
Take `Clc1ccc(-c2noc(CN(Cc3ccccn3)CC3CCCO3)n2)cc1` (stereo not drawn): the “hERG current change (%, negative = inhibition) at 10uM” value is listed as -28.5%.
Then `O=C(Nn1c(-c2ccncc2)nc2ccccc2c1=O)c1ccc(Br)cc1`, with -28.9%.
Consider `CCOC(=O)C1=C(COC(=O)C2CC(=O)N(c3ccc(CC)cc3)C2)NC(=O)NC1C` (stereo not drawn), for which the “hERG current change (%, negative = inhibition) at 10uM” value is on record as -21.9%.
As to `c1ccc(-n2ncc3c(N4CCN(c5ccccn5)CC4)nc(N4CCCCCC4)nc32)cc1`, the “hERG current change (%, negative = inhibition) at 10uM” value is 14.1%.
`CC(=O)c1ccc(NC(=O)COC(=O)C2C3CC4OC(=O)C2C4C3)cc1` (stereo not drawn): the “hERG current change (%, negative = inhibition) at 10uM” value stood at 11.7%.
As to `COc1ccc(CCN=C(NS(=O)(=O)c2ccccc2)c2ccccc2)cc1OC`, the “hERG current change (%, negative = inhibition) at 10uM” value worked out at 14.8%.
Take `O=C(CCc1nc(-c2cccs2)no1)NCc1ccc(F)cc1Cl`: the “hERG current change (%, negative = inhibition) at 10uM” value is given as -22.3%.
As to `O=C(CSc1ncnc2nc[nH]c12)Nc1ccccc1C(F)(F)F`, the “hERG current change (%, negative = inhibition) at 10uM” value turned out to be 7.74%.
Then `CC(C)c1ccccc1NS(=O)(=O)c1cccs1`, with 17.8%; and `N#Cc1ccccc1NC(=O)CN1C(=O)NC(Cc2c[nH]c3ccccc23)C1=O` (stereo not drawn), with 0.694%; and `O=C(Nc1cccs1)Nc1c(F)c(F)c(F)c(F)c1F`, with -36.1%.
As for `O=C(N/N=C/c1ccc(N2CCCCC2)o1)c1ccccc1`, the “hERG current change (%, negative = inhibition) at 10uM” value was 1.25%.
Regarding `CC(=O)Nc1ccc(NCc2cccs2)cc1`, the “hERG current change (%, negative = inhibition) at 10uM” value was determined as 6.07%.
With `CCOC(=O)CC(NC(=O)CCc1c(C)nc2ncnn2c1C)c1ccc(C)cc1` (stereo not drawn), the “hERG current change (%, negative = inhibition) at 10uM” value is reported as -17.1%.
For `Cc1cccc(CCN(CC(=O)NC2CCCCC2)C(=O)c2csnn2)c1`, the “hERG current change (%, negative = inhibition) at 10uM” value was -2.04%.
Then `Cn1c(=O)[nH]c(=O)c2c1nc(N1CCc3ccccc3C1)n2CCSc1nc2ccccc2s1`, with 11.1%.
Then `CC(C)=CCN1CCN(Cc2cn(C(C)C)c3ccccc23)CC1CCO` (stereo not drawn), with -10.5%; and `O=C(OCC(=O)c1c[nH]c2ccccc12)c1ccc([N+](=O)[O-])s1`, with 6.82%.
On to `Cc1ccc2nc(N3CCN(CCO)CC3)nc(-c3ccccc3)c2c1`, for which the “hERG current change (%, negative = inhibition) at 10uM” value is given as -54.4%.
`CCN(CC)CCN(Cc1cc2cc3c(cc2[nH]c1=O)OCO3)C(=S)NCCCOC`: the “hERG current change (%, negative = inhibition) at 10uM” value is listed as -6.7%.
Then `COc1cccc(-c2nc(CS(=O)CC(=O)O)c(C)o2)c1` (stereo not drawn), with -10.4%; and `CC(=O)N/N=C/c1cc([N+](=O)[O-])ccc1OCCOc1ccccc1`, with 0.245%; and `CCN1CCN(Cc2c(OC)ccc3ccccc23)CC1`, with 0.992%.
In the case of `CCC(C)(C)NC(=O)c1sccc1Oc1ccc(F)cc1[N+](=O)[O-]` it was 1.02%; in that of `COc1ccc(C(CNC(=O)c2cccn2C)N2CCOCC2)cc1` (stereo not drawn), 3.91%.
Then `CCOC(=O)c1cnc2ccccc2c1NCCc1ccc(OC)c(OC)c1`, with -78.2%; and `O=C(CSc1ccc(F)cc1)Nc1ccc(C2SCCS2)cc1`, with -4.16%; and `Cc1nnc(C)n1/N=C/c1ccc(C(=O)O)cc1`, with 9.36%.
As for `CC(C)c1cc(N2CCOCC2)n2ncc(-c3ccccc3)c2n1`, the “hERG current change (%, negative = inhibition) at 10uM” value is -16.1%.
Turning to `O=C(NCc1ccc(C(F)(F)F)cc1)C1CC(c2ccccc2C(F)(F)F)=NO1` (stereo not drawn), the “hERG current change (%, negative = inhibition) at 10uM” value is listed as -13.5%.
In the case of `CCOc1ccc(N(C)S(=O)(=O)c2cnc[nH]2)cc1` it was 4.69%.
In the case of `Cc1ccc(C(=O)Nc2cccc(C(F)(F)F)c2)cc1NC(=O)c1nccn1C` it was 1.96%; in that of `Cc1noc(C)c1C(=O)NC1=NCCS1`, -2.48%; in that of `O=C(CN1CCNCC1)Nc1ccc(Oc2ccccc2)cc1`, -17.9%.
Turning to `COCCn1c(C(=O)N2CCCC2)cc2c1C[C@H]1CN(C(=O)c3ccccc3)[C@@](Cc3ccc(F)cc3)(C(=O)OC)[C@@H]21`, the “hERG current change (%, negative = inhibition) at 10uM” value is given as -39.3%.
As to `CCOC(=O)c1c(C)[nH]c(C(=O)COC(=O)CNC(=O)c2ccc(Cl)cc2Cl)c1C`, the “hERG current change (%, negative = inhibition) at 10uM” value came out at 19.8%.
For `N#Cc1cn(Cc2ccccc2)c2ccccc12`, the “hERG current change (%, negative = inhibition) at 10uM” value stood at 5.51%.
In the case of `CCOc1ccc(-c2nnc(-c3ccncc3)o2)cc1OCC` it was -3.15%; in that of `CCS(=O)(=O)NCc1cn2ccsc2n1`, 2.7%; in that of `CC(NC(=O)CN(C)Cc1cccc(F)c1)c1ccccc1` (stereo not drawn), 7.3%.
In the case of `CCOCCCn1c(SCC(=O)Nc2ccc(OC)cc2)nc2ccccc2c1=O` it was -11%; in that of `CC(C)=CCN1CCN(Cc2ccc(Sc3nncn3C)o2)CC1CCO` (stereo not drawn), 29.1%; in that of `CCn1c(=O)n(CC(=O)N2CCC3(CC2)OCCO3)c(=O)c2ccccc21`, 2.49%.
For the compound `CCOC(=O)c1cc(NC(=O)Nc2ccc(OC)c(OC)c2)c(C)nc1C`, the “hERG current change (%, negative = inhibition) at 10uM” value was determined as 20.2%.
